Data published in PubChem BioAssay AID1956 (SRMLSC, 2009).
Some of the results follow. Further columns of the screen follow, without active or inactive calls.

assay: enhancers of HSV replication in host cells, fold increase, host cell viability (AID 1956); conditions: HSV replication augmentation in cells; fold increase: measured here: primary screen fold increase 10 uM, at 10 µM, stronger effect = higher value; viability: measured here: host cell viability series, at 25 µM, stronger effect = lower value; also: tested in PC3 cells

| Compound | fold increase | viability [%] |
| --- | --- | --- |
| CC(C)c1nc2sc3c(=O)[nH]c(=S)[nH]c3c2c2c1CCC2 | 1.42 | 95 |
| O=C(c1cc2c(ccc3ccccc32)oc1=O)N1CCN(CCO)CC1 | 1.32 | 101 |
| COc1ccc(C(=O)c2sc3nc(C)cc(-c4cccs4)c3c2N)cc1OC | 1.95 | 88.9 |
| Nc1ccc2c3c(cccc13)C(=O)N(c1ccccc1)C2=O | 8.39 | 97.6 |
| Cc1ccc(Nc2nc(Cl)c(C=O)s2)cc1 | 1.58 | 83.1 |
| Cc1nonc1NC(=O)CSc1nc2ccccc2cc1C#N | 1.32 |  |
| CCOc1cc(CNc2cccc3ccccc23)cc(Br)c1OCC(=O)NC(C)(C)C | 1.48 | 90.9 |
| COc1cc(/C=C/c2nc3ccccc3s2)cc(OC)c1O | 8.13 | 90.5 |
| CCOc1cc(/C=C2\SC(=O)N(c3ccc(O)cc3)C2=O)ccc1O | 1.51 | 94.1 |
| Cc1ccc(C(=O)NNC2=Nc3cccc4cccc2c34)cc1 | 1.5 | 73.4 |
| Cc1ccccc1-n1c(=O)cc(N2CCc3ccccc3C2)[nH]c1=O | 1.32 | 90.5 |
| C=CCn1c(SCC(=O)Nc2sccc2C#N)nc2sc(C)c(C)c2c1=O | 1.08 |  |
| COc1cc2c3nnc(-c4ccccc4)c-3cn(Cc3ccccc3F)c2cc1OC | 3.34 | 91 |
| c1cncc(Nc2nc(-c3cccs3)cs2)c1 | 1.32 | 86.8 |
| CC(Sc1nc2ccccc2s1)C(=O)NC1CCCc2ccccc21 (stereo not drawn) | 1.44 | 86.5 |
| COc1cc2cc(CN(Cc3cccnc3)C(=O)Nc3ccccc3)c(=O)[nH]c2cc1OC | 1.51 | 96.4 |
| C=C(C)CSc1nc2nc(C)c(Br)cc2[nH]1 | 1.34 | 105 |
| CCCOc1cc(N(CC)CC)ccc1/C=C(/C#N)c1nc2ccc(C)cc2[nH]1 | 6.6 | 76.8 |
| CCCN1C(=O)/C(=C\C=C2/Sc3ccccc3N2CC)SC1=S | 1.46 | 92.3 |
| O=S(=O)(c1ccc(F)cc1)N1CN(Cc2ccco2)c2nc3ccccc3nc21 | 1.59 | 84.4 |
| OCC[n+]1ccc(/C=C/c2c[nH]c3ccccc23)cc1 | 2.45 | 86.6 |
| O=S(=O)(/N=C(/c1ccccc1Cl)N1CCOCC1)c1ccccc1 | 1.38 | 94.2 |
| COc1cccc(NC(=O)CN2C(=O)COc3ccc(Cl)cc32)c1 | 1.37 | 90.7 |
| Cc1cc(C(F)(F)F)c(C#N)c(SCC(=O)Nc2nc3cc(Br)ccc3s2)n1 | 1.78 | 83.2 |
| CC(C)Cn1c(/C=C/c2ccco2)nc2ccccc21 | 1.46 | 94.8 |
| CN1/C(=C\C=C2\N=C(c3ccc(F)cc3)OC2=O)C(C)(C)c2ccccc21 | 1.47 | 94.1 |
| COc1ccc(CN(Cc2cccn2C)S(=O)(=O)c2ccc(F)cc2)cc1 | 1.5 | 97.6 |
| N#CCc1nc2ccc(S(=O)(=O)N3CCOCC3)cc2s1 | 2.41 | 94.4 |
| N#CC1=C2N=C(N)c3ccccc3N2C2=C(C(=O)CCC2)C1c1ccc(Cl)cc1 (stereo not drawn) | 1.39 | 68.7 |
| O=C(CNC(=O)Cc1ccccc1)NCC(=O)OCc1ccc(C(=O)c2ccccc2)cc1 | 1.44 | 98.2 |
